Consider 10 molecules from article doi:10.1101/2025.11.14.688473.

Numbering of substitutions follows the chain as printed. No constants are given. Whether binding was seen depends on the method and setting. Some entries that bind do so weakly or less than the wild type. Where a sequence is shown, tags or fusion partners need not be part of it.

The labels stand for the following.
T1: BD-Atg9 (S. cerevisiae) (UniProt Q12142)
T1 sequence: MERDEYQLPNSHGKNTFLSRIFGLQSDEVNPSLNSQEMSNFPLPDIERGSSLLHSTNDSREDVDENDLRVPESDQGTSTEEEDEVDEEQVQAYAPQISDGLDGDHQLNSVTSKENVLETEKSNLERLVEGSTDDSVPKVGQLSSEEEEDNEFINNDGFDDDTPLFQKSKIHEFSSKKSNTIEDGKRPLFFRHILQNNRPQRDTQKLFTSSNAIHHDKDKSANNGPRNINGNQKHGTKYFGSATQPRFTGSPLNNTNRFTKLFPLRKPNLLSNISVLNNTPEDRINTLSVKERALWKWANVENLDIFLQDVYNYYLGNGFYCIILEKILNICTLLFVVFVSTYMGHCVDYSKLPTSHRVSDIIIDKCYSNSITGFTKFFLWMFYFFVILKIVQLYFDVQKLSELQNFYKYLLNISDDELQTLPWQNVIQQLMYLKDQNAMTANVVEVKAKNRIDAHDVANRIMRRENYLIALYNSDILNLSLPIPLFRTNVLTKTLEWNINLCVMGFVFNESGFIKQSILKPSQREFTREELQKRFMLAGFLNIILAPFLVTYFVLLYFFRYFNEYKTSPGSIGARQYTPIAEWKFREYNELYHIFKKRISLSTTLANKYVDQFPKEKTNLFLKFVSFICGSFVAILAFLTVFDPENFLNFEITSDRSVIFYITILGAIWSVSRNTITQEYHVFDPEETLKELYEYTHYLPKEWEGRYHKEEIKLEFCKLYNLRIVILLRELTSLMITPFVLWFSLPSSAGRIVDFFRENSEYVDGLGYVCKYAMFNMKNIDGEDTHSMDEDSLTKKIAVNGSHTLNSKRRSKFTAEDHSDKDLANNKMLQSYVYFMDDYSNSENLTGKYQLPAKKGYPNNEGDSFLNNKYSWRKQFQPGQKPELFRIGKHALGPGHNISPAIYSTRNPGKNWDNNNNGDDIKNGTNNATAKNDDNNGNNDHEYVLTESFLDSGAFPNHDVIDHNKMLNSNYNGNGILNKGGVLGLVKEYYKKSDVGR

B1: AD-Atg11 (wild type) (protein, UniProt Q12527 1-1178)
chain: MADADEYSTAPTQQEITPLQTTATIINAISGECITTNVDFFVSLDKFKQFIARKWKIPPDQLLILLPYGNKLKPSMFKELLINRSFTLNDFYVYDRRLFSLVSKPTPTNLLTSKDSNPMNSPNSNDLTETLEYLIKNSHISQYQGSDTIMIKPMPSPLEDADVDLSRLNYHSVTSLLTTNLGWLSALEIDVHYFKSLIPDIIAHIKRIFDGLTVCSQYLKLYCFDVESLYNSNVQFLNQLVDNGMTSKWEKCFNDTLSKLTALEGDSLQKFINIESLLENEKSVKILNHSINGKLNKIKREIDENASFRDIITVNIDRLRQMFTPNESKFELEDQMAESFEVLVSEMRTRSRNVLDKEEEEFNSQEFLKSMNVMLEKDKKESVKTLFTISQALYSQIGELIDLKKSLQKHAVAILGNIAFTQMEILGIKRLLLNECNKDLELYKKYEVEFAQVEDLPLIYGLYLIEKYRRLSWFQQILSFISNFNQDLELFKQNELRTRNKWVKNFGSIATVFCEDLLSSSDFKRLNEYHSHTSPPNEDEEDENENSIANYRQDLVKVSQAIDNYMTQIKETDVSEPIIDLLSKTLFETKRFHIIYSNFKNNNNNSSNGNSISPEGSIALKSDDVVKGYKTRIKKLESLLHEFQYSDIGHWPQGVLNTHLKPFRGSATSINKKKFLGASVLLEPANISEVNIDSVSQANNHQIQELESNVDDLLHQLQLLKEENNRKSMQISEMGKKISDLEVEKTAYRETLTNLNQELARLTNEEQSHRTEIFTLNASFKKQLNDIISQDNEKIEKLTGDYDDVSKSRERLQMDLDESNKKHEQEVNLLKADIERLGKQIVTSEKSYAETNSSSMEKGEKFETIPLAEDPGRENQISAYTQTLQDRIFDIISTNIFILENIGLLLTFDNNNNIQIRRVKGLKKGTAQSNILDESTQMLDAHDNSLIKSPVFQKLKDEYELIKSVANGSEKDTQQSIFLGNITQLYDNKLYEVAVIRRFKDIETLAKKLTKENKIKRTLLERFQREKVTLRNFQIGDLALFLPTRENVNSVGSMSSSTSSLSSSFSSVDLSTPPPLDAMSIQSSPSVIHSNVINQASISGRDKNKLMRPWAAFTAFEESTRYFLKDEKGLTKGKEWFVGRIVTLEHFVADSPSNNPFRLPKGSVWFQVTAVVVSYQGV
B2: AD-atg11 QQ (protein, UniProt Q12527 1-1178)
chain: B1 chain with Q475A, Q476A
B3: AD-atg11 EDLLS (protein, UniProt Q12527 1-1178)
chain: B1 chain with E515A, D516A, L517A, L518A, S519A
B4: AD-atg11 YDL (protein, UniProt Q12527 1-1178)
chain: B1 chain with Y468A, D516A, L517A
B5: AD-atg11 QNLNK (protein, UniProt Q12527 1-1178)
chain: B1 chain with Q493A, N494A, L496A, N500A, K501A
B6: AD-atg11 TV (protein, UniProt Q12527 1-1178)
chain: B1 chain with T511A, V512A
B7: AD-atg11 DL (protein, UniProt Q12527 1-1178)
chain: B1 chain with D516A, L517A
B8: AD-atg11 DLL (protein, UniProt Q12527 1-1178)
chain: B1 chain with D516A, L517A, L526A
B9: AD-atg11 YDLL (protein, UniProt Q12527 1-1178)
chain: B1 chain with Y468A, D516A, L517A, L526A
B10: AD-atg11 IA3 (protein, UniProt Q12527 1-575; P01094 2-53; Q12527 628-1178)
chain: MADADEYSTAPTQQEITPLQTTATIINAISGECITTNVDFFVSLDKFKQFIARKWKIPPDQLLILLPYGNKLKPSMFKELLINRSFTLNDFYVYDRRLFSLVSKPTPTNLLTSKDSNPMNSPNSNDLTETLEYLIKNSHISQYQGSDTIMIKPMPSPLEDADVDLSRLNYHSVTSLLTTNLGWLSALEIDVHYFKSLIPDIIAHIKRIFDGLTVCSQYLKLYCFDVESLYNSNVQFLNQLVDNGMTSKWEKCFNDTLSKLTALEGDSLQKFINIESLLENEKSVKILNHSINGKLNKIKREIDENASFRDIITVNIDRLRQMFTPNESKFELEDQMAESFEVLVSEMRTRSRNVLDKEEEEFNSQEFLKSMNVMLEKDKKESVKTLFTISQALYSQIGELIDLKKSLQKHAVAILGNIAFTQMEILGIKRLLLNECNKDLELYKKYEVEFAQVEDLPLIYGLYLIEKYRRLSWFQQILSFISNFNQDLELFKQNELRTRNKWVKNFGSIATVFCEDLLSSSDFKRLNEYHSHTSPPNEDEEDENENSIANYRQDLVKVSQAIDNYMTQIKETDVSNTDQQKVSEIFQSSKEKLQGDAKVVSDAFKKMASQDKDGKTTDADESEKHNYGYKTRIKKLESLLHEFQYSDIGHWPQGVLNTHLKPFRGSATSINKKKFLGASVLLEPANISEVNIDSVSQANNHQIQELESNVDDLLHQLQLLKEENNRKSMQISEMGKKISDLEVEKTAYRETLTNLNQELARLTNEEQSHRTEIFTLNASFKKQLNDIISQDNEKIEKLTGDYDDVSKSRERLQMDLDESNKKHEQEVNLLKADIERLGKQIVTSEKSYAETNSSSMEKGEKFETIPLAEDPGRENQISAYTQTLQDRIFDIISTNIFILENIGLLLTFDNNNNIQIRRVKGLKKGTAQSNILDESTQMLDAHDNSLIKSPVFQKLKDEYELIKSVANGSEKDTQQSIFLGNITQLYDNKLYEVAVIRRFKDIETLAKKLTKENKIKRTLLERFQREKVTLRNFQIGDLALFLPTRENVNSVGSMSSSTSSLSSSFSSVDLSTPPPLDAMSIQSSPSVIHSNVINQASISGRDKNKLMRPWAAFTAFEESTRYFLKDEKGLTKGKEWFVGRIVTLEHFVADSPSNNPFRLPKGSVWFQVTAVVVSYQGV

In this experiment the target is T1, BD-Atg9 (S. cerevisiae). Kind of experiment: two-hybrid; BD-ATG9 and AD-ATG11 or mutants in multiple-knockout yeast YCY149 (lacking 25 ATG genes); growth on SMD -ura -leu -his with 1.5 mM 3-amino-triazol, 4-5 days at 30°C.
With B1, the binding entry is reported as “binds”. On to B2, for which the binding result is “binds”. As for B3, the binding result is on record as “binds”. The entry for B4 is “binds”. Take B5: the binding result is reported as “binds”. In the case of B6, the binding result is listed as “binds”. For B7 the value was “binds”; for B8, “binds”. For B9 the value was “binds weakly”; for B10, “binds”.
